The source of these data is the supplement of paper PMC4723716.

± gives the uncertainty stated by the source. In all, about 9,900 compounds were measured (“viability index relative to DMSO control”: median about 1, lowest 2% from about 0.85 on). The list shows a part of the results.

For this test, the system named is Plasmodium falciparum NF54 stage V gametocytes. As to the kind of experiment: viability index relative to DMSO control (fraction); higher = less gametocyte killing. The following applies: 2.5 µM, library set: Broad Institute DOS, incubation time: 72 h. The method, then:
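Broad DOS informer set and blood-stage-active DOS compounds screened in duplicate at 2.5 µM against P. falciparum NF54 stage V gametocytes with the serum-free one-step SaLSSA (1536-well): 72 h at 37 °C under low oxygen, then saponin lysis and MitoTracker Red CMXRos staining, with high-content imaging. Viability index = viable-object count divided by the plate mean of DMSO wells (0 = killed, about 1 = inactive).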

Consider `C[C@H]1CN([C@@H](C)CO)C(=O)c2cccc(NS(C)(=O)=O)c2O[C@H]1CN(C)Cc1ccc(-c2ccccc2)cc1`, for which the viability index is 1.033 ± 0.0035. The result for `C[C@@H]1CN([C@H](C)CO)C(=O)c2ccccc2-c2ccccc2CO[C@@H]1CN(C)C(=O)Nc1cccc(Cl)c1Cl` reads 0.894 ± 0.05; that for `COc1cccc(-c2ccc3n(c2=O)C[C@H]2N[C@@H]3[C@@H](C(=O)N3CCCCC3)[C@@H]2CO)c1`, 1.01 ± 0.054; that for `O=C(C[C@H]1CC[C@H]2[C@@H](COC[C@H](O)CN2Cc2cccc(Cl)c2)O1)NCc1cccc(F)c1`, 0.969 ± 0.015.

`CO[C@@H]1CN(C)C(=O)c2cc(NC(=O)C3CC3)ccc2OC[C@@H](C)N(Cc2cc(F)ccc2F)C[C@@H]1C`: the viability index worked out at 0.982 ± 0.078.

`CCCN1C[C@@H](C)[C@H](OC)CN(C)C(=O)c2cc(NC(=O)C3CCC3)ccc2OC[C@@H]1C` yielded a viability index of 1.04 ± 0.044.

The molecule `O=C(N[C@H]1C=C[C@H](CC(=O)N2CCN(c3ccccc3)CC2)O[C@@H]1CO)c1ccccc1` yielded a viability index of 1.09 ± 0.064. The result for `C[C@H](CO)N1C[C@H](C)[C@@H](CN(C)Cc2ccc(-c3ccccc3)cc2)Oc2c(NS(C)(=O)=O)cccc2C1=O` reads 1.02 ± 0.03. For `C[C@H](CO)N1C[C@H](C)[C@@H](CN(C)S(=O)(=O)c2ccc(F)cc2)Oc2ccc(NS(=O)(=O)c3cn(C)cn3)cc2C1=O` the value was 0.941 ± 0.24; for `COc1ccc2c3c([nH]c2c1)[C@@H](CO)N(C[C@]31CN(Cc2ccccc2)C1)C(=O)c1cccnc1`, 0.941 ± 0.11. The result for `O=C([C@H]1[C@H](CO)[C@H]2Cn3c(ccc(-c4ccc(F)cc4)c3=O)[C@H]2N1Cc1cocn1)N1CCCCC1` reads 1.0512 ± 0.00091; that for `C[C@H](CO)N1C[C@H](C)[C@H](CN(C)Cc2ccc(-c3ccccc3)cc2)Oc2ccc(N(C)C)cc2CC1=O`, 0.947 ± 0.086; that for `CN1C[C@H]2[C@@H](c3ccccc31)[C@H](CO)N2C(=O)C1CCOCC1`, 1 ± 0.034.

In turn, `COc1cccc(S(=O)(=O)Nc2ccc3c(c2)[C@H]2C[C@@H](CC(=O)NC4CCCCC4)O[C@@H](CO)[C@H]2O3)c1` yielded a viability index of 1.09 ± 0.041.

With `Cc1noc(C)c1S(=O)(=O)Nc1ccc2c(c1)CC(=O)N([C@H](C)CO)C[C@@H](C)[C@H](CN(C)Cc1ccc(Oc3ccccc3)cc1)O2`, the viability index was 0.948 ± 0.067. For `C[C@H](CO)N1C[C@H](C)[C@H](CN(C)Cc2cccc(C(F)(F)F)c2)OCc2ccccc2-c2c(n(C)c3ccccc23)C1=O` the value was 0.972 ± 0.029. For `COc1ccc2c3c([nH]c2c1)[C@H](CO)N(C[C@]31CN(C1)C(=O)C1CCC1)C(=O)c1ccccn1` the value was 1.04 ± 0.053.

Consider `CO[C@@H]1CN(C)C(=O)c2cc(NS(C)(=O)=O)ccc2OC[C@H](C)N(Cc2cncnc2)C[C@H]1C`, for which the viability index is 1.03 ± 0.033. For `O=C(NCC1CCCCC1)[C@@H]1[C@@H](CO)[C@@H]2Cn3c(cccc3=O)[C@H]1N2C(=O)c1ccncc1` the value was 1.05 ± 0.053.

In turn, `C[C@H]1CN([C@@H](C)CO)C(=O)c2ccccc2-c2ccccc2CO[C@@H]1CN(C)S(=O)(=O)c1ccc([N+](=O)[O-])cc1` showed a viability index of 1.0249 ± 1.2e-05.

Molecule `Cc1ccc(S(=O)(=O)N(C)C[C@H]2Oc3cc(C#CC4CCCC4)ccc3S(=O)(=O)N([C@H](C)CO)C[C@H]2C)cc1` displayed a viability index of 0.8771 ± 0.0037. The molecule `O=C(Nc1ccc(F)cc1)N1CC(=O)N2[C@H](CO)[C@H](c3ccc(C#Cc4cccnc4)cc3)[C@H]2C1` gave a viability index of 1.1 ± 0.086. The result for `C[C@@H](NC(=O)C[C@@H]1CC[C@H]2[C@H](COc3ccc(NC(=O)C4CCOCC4)cc3C(=O)N2C)O1)c1ccccc1` reads 1.13 ± 0.079; that for `O=C(Cc1ccccn1)N1CC(=O)N2[C@H](CO)[C@@H](c3ccc(C#CCC4CCCC4)cc3)[C@H]2C1`, 1.05 ± 0.033. Molecule `O=C(C[C@@H]1CC[C@@H]2[C@H](COC[C@@H](O)CN2CCC(F)(F)F)O1)NCC1CC1` yielded a viability index of 1.06 ± 0.015. The molecule `O=C(NC1CCCC1)N1CCCCN2[C@H](C1)[C@@H](c1ccc(-c3cccnc3)cc1)[C@@H]2CO` came in with a viability index of 1.08 ± 0.033. For `COc1ccc2c3c([C@H](CO)N(Cc4cccnc4)C[C@]33CCN(CC3)C(=O)NC(C)C)n(C)c2c1` the value was 1.01 ± 0.021; for `O=C(C[C@H]1CC[C@@H]2[C@H](COC[C@@H](O)CN2C(=O)c2ccccc2F)O1)NCc1ccc(Cl)c(Cl)c1`, 1.099 ± 0.0019. For `CN1C[C@@H]2[C@H](c3ccccc31)[C@H](CO)N2C(=O)C1CCOCC1` the value was 0.9689 ± 0.0088; for `COc1ccc(C[C@@H]2CCc3cnnn3COCCNC2=O)cc1`, 1.09 ± 0.025; for `CCCC#Cc1ccc([C@H]2[C@@H](CO)N3C(=O)CN(C(=O)Nc4cccc(F)c4)C[C@@H]23)cc1`, 1.02 ± 0.082. For `COc1cccc(S(=O)(=O)Nc2ccc3c(c2)[C@H]2C[C@H](CC(=O)NC4CCCCC4)O[C@@H](CO)[C@H]2O3)c1` the value was 1.12 ± 0.025.

`O=C(Nc1ccc(C(F)(F)F)cc1)N[C@H]1C=C[C@H](CC(=O)N2CCCCC2)O[C@H]1CO` registered a viability index of 1.07 ± 0.073. The result for `COCC(=O)N(C[C@@H]1[C@@H](c2ccccc2)[C@H](CO)N1C(=O)NC(C)C)C(C)C` reads 1.03 ± 0.089; that for `C[C@H]1C/C=C/C[C@H](c2ccc3c(c2)OCO3)NC(=O)[C@H](C)N(C)C(=O)c2ccccc2O1.C[C@H]1C/C=C\C[C@H](c2ccc3c(c2)OCO3)NC(=O)[C@H](C)N(C)C(=O)c2ccccc2O1`, 1.06 ± 0.12.
